Results from patent publication US10577308B2, “Sodium channel modulators” (The Florey Institute of Neuroscience and Mental Health, priority 2015, dated 2020).

System: sodium channel site 2
Details: rat forebrain membranes, [3H]batrachotoxinin 5 nM, 37° C. 60 min; read-out: IC50 binding to sodium channel site 2 in competition with [3H]batrachotoxinin

Row | Compound | IC50
1 | COc1ccc(CNCCCOc2c(C)cccc2C)cc1 [Compound 520, 3-(2,6-Dimethylphenoxy)-N-(4-methoxybenzyl)propan-1-amine] | 0.438 µM
2 | Cc1cccc(C)c1OCCCNCc1ccc(-c2ccccc2)cc1 [Compound 522, N-(Biphenyl-4-ylmethyl)-3-(2,6-dimethylphenoxy)propan-1-amine] | < 0.3 µM
3 | Cc1cccc(C)c1OCCCNCc1cc(Cl)c(O)c(Cl)c1 [Compound 504, 2,6-Dichloro-4-((3-(2,6-dimethylphenoxy)propylamino)methyl)phenol] | > 0.9 µM
4 | Cc1cccc(C)c1OCCCNCc1ccccn1 [Compound 523, 3-(2,6-Dimethylphenoxy)-N-(pyridin-2-ylmethyl)propan-1-amine] | 2.06 µM
5 | Cc1cccc(C)c1OCCCNCc1ccccc1-c1ccccc1 [Compound 536, N-(Biphenyl-2-ylmethyl)-3-(2,6-dimethylphenoxy)propan-1-amine] | 0.2 µM
6 | Cc1cccc(C)c1OCCCNC(C)c1ccccc1 (stereo not shown) [Compound 553, 3-(2,6-Dimethylphenoxy)-N-(1-phenylethyl)propan-1-amine] | 0.53 µM
7 | Cc1cccc(C)c1OCCCNCc1ccc(C(F)(F)F)cc1 [Compound 526] | 0.375 µM
8 | Cc1cccc(C)c1OCCCNCc1ccc(O)cc1 [Compound 550, 4-((3-(2,6-Dimethylphenoxy)propylamino)methyl)phenol] | 1.19 µM
9 | CC(=O)Nc1ccc(CNCCCOc2c(C)cccc2C)cc1 [Compound 542, N-(4-((3-(2,6-Dimethylphenoxy)propylamino)methyl)phenyl)acetamide] | > 0.9 µM
10 | Cc1cccc(C)c1OCCCNCc1ccc(C#N)cc1 [Compound 519, 4-((3-(2,6-Dimethylphenoxy)propylamino)methyl)benzonitrile] | 0.68 µM
11 | Cc1cccc(C)c1OCCCNCc1cccc(-c2ccccc2)c1 [Compound 535, N-(Biphenyl-3-ylmethyl)-3-(2,6-dimethylphenoxy)propan-1-amine] | 0.159 µM
12 | Cc1cccc(C)c1OCCCNCc1ccccc1 [Compound 518, N-Benzyl-3-(2,6-dimethylphenoxy)propan-1-amine] | 0.404 µM
13 | Cc1cccc(C)c1OCCCNCc1cccnc1 [Compound 528, 3-(2,6-Dimethylphenoxy)-N-(pyridin-3-ylmethyl)propan-1-amine] | > 0.9 µM
14 | COc1ccccc1CNCCCOc1c(C)cccc1C [Compound 530, 3-(2,6-Dimethylphenoxy)-N-(2-methoxybenzyl)propan-1-amine] | > 0.9 µM
15 | Cc1cccc(C)c1OCCCNCc1ccccc1F [Compound 551, 3-(2,6-Dimethylphenoxy)-N-(2-fluorobenzyl)propan-1-amine] | 0.793 µM
16 | 3-((3-(2,6-Dimethylphenoxy)propylamino)methyl)benzonitrile [Compound 524] | 0.535 µM
17 | COc1cccc(CNCCCOc2c(C)cccc2C)c1 [Compound 525, 3-(2,6-Dimethylphenoxy)-N-(3-methoxybenzyl)propan-1-amine] | 0.34 µM
18 | Cc1cccc(C)c1OCCCNCc1ccc(S(N)(=O)=O)cc1 [Compound 532, 4-((3-(2,6-Dimethylphenoxy)propylamino)methyl)benzenesulfonamide] | > 0.9 µM
19 | Cc1cccc(C)c1OCCCNCc1ccc(F)cc1 [Compound 521, 3-(2,6-Dimethylphenoxy)-N-(4-fluorobenzyl)propan-1-amine] | 0.57 µM
20 | Cc1cccc(C)c1OCCCNCc1cccc(F)c1 [Compound 552, 3-(2,6-Dimethylphenoxy)-N-(3-fluorobenzyl)propan-1-amine] | 0.733 µM
21 | 3-(2,6-Dimethylphenoxy)-N-(3-(trifluoromethyl)benzyl)propan-1-amine [Compound 533] | 0.468 µM
22 | Cc1cccc(C)c1OCCCNCc1ccccc1C(F)(F)F [Compound 534, 3-(2,6-Dimethylphenoxy)-N-(2-(trifluoromethyl)benzyl)propan-1-amine] | 0.444 µM
23 | Cc1cccc(C)c1OCCCNCc1noc(C(C)C)n1 [Compound 538, 3-(2,6-Dimethylphenoxy)-N-((5-isopropyl-1,2,4-oxadiazol-3-yl)methyl)propan-1-amine] | > 0.9 µM
24 | Cc1cccc(C)c1OCCCNCc1ccc(OC(F)(F)F)cc1 [Compound 531, 3-(2,6-Dimethylphenoxy)-N-(4-(trifluoromethoxy)benzyl)propan-1-amine] | 0.359 µM
25 | Cc1cccc(C)c1OCCCNCc1nn(Cc2ccccc2)c2ccccc12 [Compound 540, N-((1-Benzyl-1H-indazol-3-yl)methyl)-3-(2,6-dimethylphenoxy)propan-1-amine] | 0.14 µM
